Data as given in FireProtDB (doi:10.1021/bi00244a032).

Details: Escherichia coli (strain K12), 25 °C, GdnHCl, CD, reversible: Unknown

Thioredoxin 1 wild type (letters omitted)
denaturant m value (pH 6.5, ACES 50 mM): 2.4 kcal/mol/M | unfolding free energy (pH 6.5, ACES 50 mM): 10 kcal/mol | denaturant m value (pH 7, TES 50 mM): 2.3 kcal/mol/M | unfolding free energy (pH 7, TES 50 mM): 9.5 kcal/mol | denaturant m value (pH 7.5, TES 50 mM): 2.2 kcal/mol/M | unfolding free energy (pH 7.5, TES 50 mM): 9 kcal/mol | denaturant m value (pH 8, Tris 50 mM): 2.2 kcal/mol/M | unfolding free energy (pH 8, Tris 50 mM): 8.8 kcal/mol | denaturant m value (pH 8.5, Tris 50 mM): 2.1 kcal/mol/M | unfolding free energy (pH 8.5, Tris 50 mM): 8.6 kcal/mol
